# Measured values reported in the supplement of paper PMC9446081.
# Among all 39,000 compounds or so, about 220 (0.56%) showed activity. Some of the results follow.
# Tested on: Escherichia coli K-12 BW25113
# Experiment: relative growth (OD600 normalised to plate interquartile mean) (fraction); higher = less growth inhibition, active = 0.2 or less
# Conditions: 50 µM; LB; incubation time: overnight (16-24 h)
# 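Further: static incubation at 37 °C against the wild-type strain, values averaged over two biological replicates.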
row,SMILES,relative growth
1,CCc1c(C)c2cc3c(-c4ccccc4)coc3cc2oc1=O,inactive: 0.959
2,Cc1noc(C)c1S(=O)(=O)N(C)C[C@@H]1Oc2ccc(NC(=O)c3ccncc3)cc2CC(=O)N([C@@H](C)CO)C[C@@H]1C,inactive: 0.995
3,COc1ccc2c(c1)OC1COc3cc(OC)c(OC)cc3C1C2=O (configuration not stated),inactive: 0.99
4,CO[C@H]1CN(C)C(=O)c2ccc(NS(=O)(=O)c3cn(C)cn3)cc2OC[C@@H](C)N(CCC(F)(F)F)C[C@H]1C,inactive: 0.998
5,C[C@@H]1CN([C@H](C)CO)C(=O)c2c(c3ccccc3n2C)-c2ccccc2CO[C@H]1CN(C)Cc1ccc(Cl)c(Cl)c1,inactive: 1.01
6,C[C@H]1CN([C@@H](C)CO)C(=O)c2cc(C#CCN(C)C)cnc2O[C@@H]1CN(C)C(=O)CCN1CCCCC1,inactive: 0.989
7,NCc1ccc(-n2cncn2)cc1,inactive: 1.02
8,C[C@H]1CN([C@@H](C)CO)C(=O)Cc2cc(NC(=O)NC3CCCCC3)ccc2O[C@H]1CN(C)C(=O)Nc1ccc(C(F)(F)F)cc1,inactive: 0.99
9,C[C@H](CO)N1C[C@H](C)[C@@H](CN(C)C(=O)Nc2ccccc2)Oc2ccc(NC(=O)Cn3cnnn3)cc2CC1=O,inactive: 0.989
10,COCC#Cc1cnc2c(c1)C(=O)N([C@@H](C)CO)C[C@@H](C)[C@H](CN(C)C(=O)Nc1ccccc1OC)O2,inactive: 1.04
11,C[n+]1ccccc1C=NO.[Cl-],inactive: 1.06
12,C[C@@H]1CN([C@@H](C)CO)C(=O)c2cc(NC(=O)Nc3ccc(C(F)(F)F)cc3)ccc2O[C@@H]1CN(C)S(=O)(=O)c1ccc(F)cc1,inactive: 0.997
13,CO[C@@]1(CNC(=O)c2ccno2)CCSC1,inactive: 1.02
14,C[C@@H]1CN([C@@H](C)CO)C(=O)c2cccc(NC(=O)NC3CCCCC3)c2O[C@@H]1CN(C)Cc1ccc(C(=O)Nc2ccccc2N)cc1,inactive: 0.998
15,C[C@H]1CN([C@@H](C)CO)C(=O)c2c(c3ccccc3n2C)-c2ccccc2CO[C@@H]1CN(C)C(=O)Nc1ccc(F)cc1,inactive: 1.01
16,C[C@H]1CN([C@@H](C)CO)C(=O)c2cc(NC(=O)Nc3cccc4ccccc34)ccc2O[C@@H]1CN(C)C(=O)Nc1ccccc1,inactive: 1.01
17,C[C@H]1CN([C@@H](C)CO)C(=O)Cc2cc(NS(=O)(=O)c3cn(C)cn3)ccc2O[C@H]1CN(C)CC1CC1,inactive: 0.99
18,C[C@H]1CN([C@@H](C)CO)C(=O)c2cc(C#CC3(O)CCCC3)cnc2O[C@H]1CN(C)C(=O)C1CCOCC1,inactive: 0.999
19,CCOc1ccc(Cc2nccc3cc(OCC)c(OCC)cc23)cc1OCC.Cl,inactive: 0.761
20,C[C@H](CO)N1C[C@H](C)[C@@H](CN(C)S(=O)(=O)c2ccc(F)cc2)Oc2c(NC(=O)C3CCOCC3)cccc2C1=O,inactive: 0.996
21,O=C(C[C@@H]1C[C@@H]2c3cc(NS(=O)(=O)c4ccc(F)cc4)ccc3O[C@@H]2[C@@H](CO)O1)NC1CCCCC1,inactive: 1.02

row,SMILES,relative growth
1,C[C@H](CO)N1C[C@H](C)[C@H](CN(C)Cc2ccc(-c3ccccc3)cc2)Oc2ccc(NS(=O)(=O)c3cccs3)cc2C1=O,inactive: 0.957
2,C[C@@H]1CN([C@H](C)CO)C(=O)c2cccc(NS(=O)(=O)c3ccc(F)cc3)c2O[C@H]1CN(C)S(=O)(=O)c1ccccc1,inactive: 0.992
3,Cc1noc(C)c1NC(=O)Nc1ccc2c(c1)C(=O)N([C@H](C)CO)C[C@@H](C)[C@H](CN(C)Cc1ccc(Cl)c(Cl)c1)OCCCC[C@H](C)O2,inactive: 0.956
4,C[C@@H]1CN([C@H](C)CO)C(=O)c2cccc(NC(=O)C3CCCCC3)c2O[C@H]1CN(C)Cc1ccc(C(F)(F)F)cc1,inactive: 0.928
5,C[C@@H]1CN([C@H](C)CO)C(=O)Cc2cc(NS(=O)(=O)c3cn(C)cn3)ccc2O[C@H]1CN(C)C(=O)Nc1ccc2c(c1)OCO2,inactive: 1.03
6,C[C@@H]1CN([C@@H](C)CO)C(=O)c2cccc(NC(=O)Nc3cccc4ccccc34)c2O[C@H]1CN(C)S(=O)(=O)c1cccs1,inactive: 1.02
7,COc1ccccc1CNC(=O)C[C@H]1C[C@@H]2c3cc(NC(=O)NC4CCCC4)ccc3O[C@@H]2[C@H](CO)O1,inactive: 0.957
8,COc1ccc(NC(=O)Nc2ccc3c(c2)C(=O)N([C@H](C)CO)C[C@H](C)[C@H](CN(C)C(=O)Nc2c(C)noc2C)OCCCC[C@H](C)O3)cc1,inactive: 0.997
9,C[C@@H]1CN([C@H](C)CO)C(=O)c2cc(NC(=O)CCC(F)(F)F)ccc2O[C@@H](C)CCCCO[C@H]1CN(C)C(=O)Nc1ccc(C(F)(F)F)cc1,inactive: 1.02
10,C[C@H](CO)N1C[C@H](C)[C@H](CN(C)Cc2ccccc2)Oc2cc(C#Cc3ccccn3)ccc2S1(=O)=O,inactive: 1.01
11,CCC(=O)Nc1nc2[nH]c(COC)cc(=O)n2n1,inactive: 0.944
12,C[C@@H]1CCCCO[C@H](CN(C)Cc2ccc3c(c2)OCO3)[C@@H](C)CN([C@H](C)CO)C(=O)c2cc(NC(=O)c3ccccc3)ccc2O1,inactive: 1.01
13,CCOC(=O)CCCCCC(=O)Nc1ccc2c(c1)C(=O)N([C@H](C)CO)C[C@@H](C)[C@@H](CN(C)C(=O)CCC(F)(F)F)OCCCC[C@H](C)O2,inactive: 0.998
14,C(=N\C1CCCCCCCCCCC1)/c1ccco1,inactive: 0.985
15,N#Cc1ccc(O)cn1,inactive: 1.03
16,CCc1cc(Nc2nccc(-c3c(-c4ccc(OC)c(C(=O)Nc5c(F)cccc5F)c4)nc4ccccn34)n2)c(OC)cc1N1CCC(N2CCN(S(C)(=O)=O)CC2)CC1,inactive: 1.02
17,Cl.NNc1nncc2ccccc12,inactive: 1.01
18,COc1cccc(S(=O)(=O)N2C[C@H](O)COC[C@@H]3O[C@@H](CC(=O)NCCCN4CCOCC4)CC[C@H]32)c1,inactive: 1.02
19,CO[C@@H](CN(C)C(=O)c1ccc2c(c1)OCO2)[C@@H](C)CN([C@@H](C)CO)S(=O)(=O)c1ccc(F)cc1,inactive: 1.03
20,COc1ccc(CN(C)C[C@@H]2Oc3ccc(NC(=O)Nc4cccc5ccccc45)cc3CC(=O)N([C@@H](C)CO)C[C@@H]2C)cc1,inactive: 0.982
21,COCC(=O)Nc1ccc2c(c1)C(=O)N(C)C[C@@H](OC)[C@@H](C)CN(C(=O)c1ccccc1F)[C@@H](C)CO2,inactive: 1.01

row,SMILES,relative growth
1,C[C@@H]1CN([C@@H](C)CO)C(=O)c2cc(NS(=O)(=O)c3cn(C)cn3)ccc2O[C@@H]1CN(C)S(=O)(=O)c1cn(C)cn1,inactive: 0.994
2,COCCNC(=O)C[C@@H]1CC[C@@H]2[C@H](COC[C@H](O)CN2C(=O)Nc2ccccc2OC)O1,inactive: 1.02
3,COCCNC(=O)C[C@@H]1CC[C@@H]2[C@H](COC[C@@H](O)CN2C(=O)Nc2ccccc2OC)O1,inactive: 0.974
4,COc1ccc(CN2C[C@@H](C)[C@H](OC)CN(C)C(=O)c3cc(NC(=O)c4nc5ccccc5s4)ccc3OC[C@@H]2C)cc1,inactive: 1.03
5,CN1CCO[C@H]2CCN(C(=O)c3cn(C)cn3)C[C@H]21,inactive: 1.01
6,C[C@H]1CCCCO[C@H](CN(C)C)[C@@H](C)CN([C@@H](C)CO)C(=O)c2cc(NC(=O)Nc3ccc(C(F)(F)F)cc3)ccc2O1,inactive: 0.947
7,C=CCNC(=O)CSc1nc(=O)cc(N)[nH]1,inactive: 1.02
8,C[C@H](O)C#Cc1ccc2c(c1)O[C@H](CN(C)C(=O)c1ccccc1)[C@@H](C)CN([C@@H](C)CO)S2(=O)=O,inactive: 1
9,CSc1nc2nc(N)nc(N)c2s1,inactive: 1
10,Cn1cnc(S(=O)(=O)N[C@H]2C=C[C@H](CC(=O)Nc3ccccc3)O[C@H]2CO)c1,inactive: 0.986
11,COc1ccc(S(=O)(=O)Nc2ccc3c(c2)C(=O)N([C@@H](C)CO)C[C@@H](C)[C@@H](CN(C)Cc2ccc(C(=O)O)cc2)OCCCC[C@H](C)O3)cc1,inactive: 1.01
12,COc1ccc([Si](C)(C)[C@H]2[C@H](CCO)O[C@@]3(C(=O)N(Cc4ccc(N(C=O)c5ccccc5)cc4)c4ccccc43)[C@@H]2C)cc1,inactive: 1.05
13,C[C@@H]1CN([C@H](C)CO)C(=O)c2cc(NC(=O)Cn3cnnn3)ccc2O[C@@H]1CN(C)Cc1ccc(C(=O)Nc2ccccc2N)cc1,inactive: 1
14,COCCOC(=O)N1C(=O)[C@@]2(c3cc(C#Cc4ccc(OC)cc4)ccc31)[C@H](C(=O)N1CCN(c3ncccn3)CC1)[C@H]1C(=O)O[C@H](c3ccccc3)[C@H](c3ccccc3)N1[C@@H]2c1ccccc1OCCO,inactive: 1.07
15,COc1c(C)c2c(c(O)c1CC=C(C)CCC(=O)OCCN1CCOCC1)C(=O)OC2,inactive: 0.928
16,C[C@@H]1CCCCO[C@H](CN(C)Cc2ccc(C(F)(F)F)cc2)[C@H](C)CN([C@H](C)CO)C(=O)c2cc(NC(=O)Nc3cccc4ccccc34)ccc2O1,inactive: 1.08
17,C[C@@H]1CN([C@@H](C)CO)C(=O)Cc2cc(NS(=O)(=O)c3ccccc3)ccc2O[C@H]1CN(C)Cc1ccc(-c2ccccc2)cc1,inactive: 0.976
18,COC(=O)[C@H](Cc1ccc(-n2cc(-c3cccc(/C=C/C(=O)NO)c3)nn2)cc1)N1CC2=C[C@H]([C@@H](O)Cc3ccccc3)n3c(=O)n(C)c(=O)n3[C@@H]2[C@@H](C2CC2)O1,inactive: 0.996
19,COCC(=O)N(C)C[C@H]1Oc2cc(C#CC(C)(C)O)ccc2S(=O)(=O)N([C@@H](C)CO)C[C@@H]1C,inactive: 1.02
20,C[C@@H]1CN([C@H](C)CO)S(=O)(=O)c2ccc(-c3cccc(F)c3)cc2O[C@@H]1CN(C)S(C)(=O)=O,inactive: 1.02
